Source: publication PMC6919601, “Identification of Plasmodium dipeptidyl aminopeptidase allosteric inhibitors by high throughput screening” (PLoS ONE, 2019)
Hit rate of the full screen: of about 110,000 compounds, about 230 (0.21%) showed an effect of 50% or more. Some of the results follow.

target: DPAP1 (Plasmodium falciparum, UniProt Q8IIJ9); assay: primary screen, percent inhibition; read by cleavage of a fluorogenic dipeptide substrate; higher = more effect of the substance; parameters: species or system P. falciparum D10 trophozoite lysates; single well
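Further: 30 min substrate incubation versus DMSO and 10 µM JCP410 controls.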

Chain of DPAP1 (Q8IIJ9 whole entry, looked up): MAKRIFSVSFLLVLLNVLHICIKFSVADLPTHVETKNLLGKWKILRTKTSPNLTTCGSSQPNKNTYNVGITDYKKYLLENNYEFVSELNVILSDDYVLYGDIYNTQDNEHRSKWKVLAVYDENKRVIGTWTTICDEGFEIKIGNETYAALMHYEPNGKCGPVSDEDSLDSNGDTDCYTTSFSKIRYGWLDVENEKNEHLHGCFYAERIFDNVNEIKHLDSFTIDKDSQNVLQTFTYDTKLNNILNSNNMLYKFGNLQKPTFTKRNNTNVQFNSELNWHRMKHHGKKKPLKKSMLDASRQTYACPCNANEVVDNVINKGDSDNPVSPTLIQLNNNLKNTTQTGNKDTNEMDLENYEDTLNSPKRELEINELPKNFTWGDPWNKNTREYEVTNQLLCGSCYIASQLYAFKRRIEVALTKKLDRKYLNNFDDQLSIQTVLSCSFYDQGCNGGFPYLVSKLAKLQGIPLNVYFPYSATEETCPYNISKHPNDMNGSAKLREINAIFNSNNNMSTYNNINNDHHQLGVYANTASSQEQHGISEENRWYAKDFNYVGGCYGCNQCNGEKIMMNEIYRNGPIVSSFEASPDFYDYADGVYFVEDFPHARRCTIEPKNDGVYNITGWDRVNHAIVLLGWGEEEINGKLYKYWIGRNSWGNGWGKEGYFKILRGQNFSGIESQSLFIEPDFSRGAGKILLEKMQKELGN

| SMILES | % Inhibition @ 10 uM |
| --- | --- |
| COc1cccc(-c2cc(C(=O)O)c3ccccc3n2)c1 | -0.865% |
| CCOC(=O)N1CCC2(CC1)OC(=O)C(C)=C2C(=O)NCCN1CCOCC1 | -5.25% |
| N#Cc1cccc(NC(=O)COc2ccc3ccccc3c2Br)c1 | 2.67% |
| CS(=O)(=O)c1ccc2nc(NC(=O)c3ccc4c(c3)OCO4)sc2c1 | 2.38% |
| N#Cc1c(NC(=O)C2C3C=CC(C3)C2C(=O)O)sc2c1CCCCC2 (stereo not shown) | -6.35% |
| Cc1nc(S(=O)(=O)NCCc2ccccc2)c(C#N)c(C)c1Cl | 4.19% |
| O=S(=O)(CCOc1ccccc1)N1CCOCC1 | -6.83% |
| CC(C)(C)NCCCOc1ccc(Br)cc1 | -3.74% |
| c1nc(N2CCNCC2)c2sc3nc(N4CCOCC4)c4c(c3c2n1)CCCC4 | 1.31% |
| c1ccc(CN2CCN(Cc3ccc(-c4ccccc4)cc3)CC2)cc1 | 3% |
| CCOc1cc(CN2CCN(c3ccccc3OC)CC2)ccc1OC | 3.16% |
| COc1ccccc1CNCc1c(C(=O)O)[nH]c2ccccc12 | -1.44% |
| COc1ccc(C(=O)OCCN2CCOCC2)cc1OC | 0.84% |
| O=C(O)c1ccc2oc(=O)c(S(=O)(=O)c3ccc(F)cc3)cc2c1 | 0.44% |
| Cc1ccc(-c2cc(C(F)F)n3ncc(C(=O)NCCCN4CCCC4=O)c3n2)cc1 | 4.08% |
| CC(NC(=O)c1ccccc1Cl)c1cc2c(cc1Cl)OCCO2 (stereo not shown) | -6.94% |
| CC1CCN(C2=CC(=O)OC23CCCCC3)CC1 | 0.0539% |
| CCn1cnc2c(=O)oc3ccc(S(=O)(=O)NCc4ccc5c(c4)OCO5)cc3c21 | 1.49% |
| Cc1c(C(=O)OC(C)C)sc2ncn(CC(=O)O)c(=O)c12 | 0.561% |
| O=[N+]([O-])c1ccc(CN2CCN(c3ccccc3Cl)CC2)s1 | -6.47% |
| Cc1ccc(-c2nnc(N3CCN(C(=O)c4ccco4)CC3)c3ccccc23)cc1 | 4.85% |
| O=C(O)/C=C/c1cccc(NS(=O)(=O)/C=C/c2ccccc2)c1 | -0.712% |
| CCC(C(=O)NC1CCCC(C)C1C)n1nc(C)n2c(cc3sccc32)c1=O (stereo not shown) | -1.58% |
| Cc1ccc(SCCC(=O)NC2CCCCCC2)cc1 | -2.74% |
| Cc1cccc(NC(=O)c2ccccc2NC(=O)C2CC=CCC2C(=O)O)c1 (stereo not shown) | 2.48% |

| SMILES | % Inhibition @ 10 uM |
| --- | --- |
| c1cncc(-c2nc3cc(Oc4ccc5[nH]c(-c6cccnc6)nc5c4)ccc3[nH]2)c1 | -0.828% |
| CCN(CC)CCCNCc1c(Cl)cccc1Cl | 5.23% |
| O=C(Nc1ccc(C(F)(F)F)cc1)C1CCN(S(=O)(=O)c2ccc(F)cc2)CC1 | 6.43% |
| O=C(O)c1cc(N2C(=O)c3cccc4cc(Br)cc(c34)C2=O)ccc1O | 13.5% |
| O=C(/C=C/c1ccco1)c1ccc(Cl)cc1 | 10.4% |
| Cc1c(NC(=O)c2ccco2)c(=O)n(-c2ccccc2)n1C | 5.03% |
| Cn1nc(C(=O)N2CCCN(Cc3ccccc3F)C2)c2c1-c1ccccc1SC2 | -5.37% |
| CCC(C)N1C(=O)S/C(=C/c2cc(Br)cc(OC)c2O)C1=O (stereo not shown) | 3.5% |
| OC1CCCN(Cc2ccc3c(c2)OCO3)C1 (stereo not shown) | -0.969% |
| Fc1nc(N2CCOCC2)c(F)c(Oc2ccc(Br)cc2)c1F | 1.84% |
| Cc1cccc(C)c1NC(=O)c1cc2c(=O)n3cccc(C)c3nc2n1C | 0.331% |
| CC(C)C[C@H](NC(=O)OCc1ccccc1-c1ccccc1)C(=O)NCC#N | -4.72% |
| CCOc1cc(C(=O)NCc2nnc(S)n2-c2cccc(C)c2)cc(OCC)c1OCC | 1.39% |
| COc1ccccc1/C=C/CNc1ccc(F)cc1 | 18% |
| COc1ccc(C2CC(=O)N3CN(Cc4cccnc4)CSC3=C2C#N)cc1 (stereo not shown) | 46.3% |
| CCC(C)NC(=O)CN(c1ccc(OC)c(Cl)c1)S(=O)(=O)c1ccc(C)cc1 (stereo not shown) | 1.05% |
| Cc1ccccc1-n1nc2c(c1NC(=O)COc1ccc(Cl)cc1)CS(=O)(=O)C2 | -3.83% |
| COC(=O)C1=CN(Cc2ccc(Cl)cc2)C=C(C(=O)OC)C1c1cc(OC)c(OC)cc1OC | 0.219% |
| O=C1CC(c2ccc(F)cc2)c2c(n3c4ccccc4nc3n(Cc3ccc(F)cc3)c2=O)N1 (stereo not shown) | -5.72% |
| C(=C/c1nccc2c1[nH]c1ccccc12)/c1ccc2c(c1)OCO2 | -11.5% |
| CCN(CC)C(=O)c1c(C)nn(-c2ccccc2)c1-n1cccc1 | 0.137% |
| COc1ccccc1C(=O)Nc1cccc(N)c1 | 1.34% |
| CCCC(=O)Nc1ccc(S(=O)(=O)N2CCCCC2)cc1 | -0.366% |
| O=C(Nc1cccc(Cl)c1)c1c(O)nc2ccccc2c1O | -4.75% |
